From PubChem BioAssay AID743279 (National Center for Advancing Translational Sciences (NCATS), 2014)
Out of some 360,000 compounds screened, about 17,000 (4.7%) were called active. The shares of active, inactive and inconclusive entries below differ from those in the screen. Cut-off read from the data, not from the text of the source: active = activity change below about -50%; inconclusive = mostly about -30% to -49%; inactive = weaker than that.

test: qHTS for Inhibitors of Inflammasome Signaling: IL-1-beta AlphaLISA Primary Screen; settings: THP-1 LPS/ATP IL-1B secretion, 16 h; at 57.5 µM, stronger effect = lower value
Outline: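 THP-1 cells pretreated 1 hr with compounds (up to 57.5 uM final), then stimulated with LPS (250 ng/mL final) plus ATP (1.25 mM final); secreted IL-1B measured by AlphaLISA after 16 hr, decreased signal indicating inhibition.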
% is set by controls: 0 for no effect and ±100 for the full control effect.

Q: With `COc1ccccc1NC(=O)Nc1nnc(C(C)C)s1` as the molecule, how does the activity change read?
A: Its activity change is inactive: 10.8%.

Q: With `O=C(CN1C(=O)NC2(CCCCCC2)C1=O)c1ccc2c(c1)OCCO2` as the molecule, how does the activity change read?
A: Its activity change is inconclusive: -48.5%.

Q: Which activity change does the source give for `C#CCN(C[C@@H]1[C@@H](OC(=O)NCc2ccc(OC)c(OC)c2)[C@@H](OC(=O)NCc2ccc(OC)c(OC)c2)Cn2c(=O)n(CCCCCC)c(=O)n21)S(=O)(=O)c1ccc(C)cc1` here?
A: Its activity change is inactive: -2.79%.

Q: For `O=C(NC1CCCCC1)N(Cc1cc2cc3c(cc2[nH]c1=O)OCCO3)C1CCCCC1`, which activity change is on record?
A: Its activity change is inconclusive: -38.7%.

Q: Which activity change does the source give for `O=C(Nc1ccc(F)c(Cl)c1)c1ccc2sc([C@@H]3O[C@H](CO)[C@H](O)[C@H](O)[C@H]3O)nc2c1` here?
A: Its activity change is inactive: 9.29%.

Q: Which activity change does the source give for `CC1=C(C(=O)N(C(C)C)C(C)C)CC(CC(=O)NC2CCCCC2)C(=O)N1Cc1ccc(F)cc1` (stereo not given) here?
A: Its activity change is inactive: -17.7%.

Q: With `CCCS(=O)(=O)N1CCC(C(=O)N2CCC(Cc3ccccc3)CC2)CC1` as the molecule, how does the activity change read?
A: Its activity change is inactive: -18.1%.

Q: For `COc1ccc(S(=O)(=O)CCC(=O)N2CCN(c3ccc([N+](=O)[O-])cc3)CC2)cc1`, which activity change is on record?
A: The activity change was inconclusive: -45.5%.

Q: Which activity change does the source give for `Cc1cc(C)cc(NC(=O)CCn2cnc3cc(C)c(C)cc32)c1` here?
A: Its activity change is inconclusive: -48.9%.

Q: With `O=c1c2ccccc2nc(/C=C/c2cc(Br)ccc2O)n1CCO` as the molecule, how does the activity change read?
A: Its activity change is active: -97.7%.

Q: For `CC12CCC(=O)C=C1CCC1C2C(O)CC2(C)C1CCC2(O)C(=O)COC(=O)COCC(=O)O` (stereo not given), which activity change is on record?
A: Its activity change is active: -50.3%.

Q: Which activity change does the source give for `Nc1nc(-c2ccccc2)cn1/N=C/c1ccccc1` here?
A: The activity change was inconclusive: -36.5%.

Q: Which activity change does the source give for `CCC/C=C/c1ccc(CN2C(CC(C)C)C(=O)N(Cc3cn(Cc4ccco4)nn3)CCS2(=O)=O)cc1` (stereo not given) here?
A: The activity change was active: -62.4%.

Q: For `COc1ccc(CCC(=O)Nc2sccc2C#N)cc1`, which activity change is on record?
A: The activity change was inactive: -26.7%.

Q: Which activity change does the source give for `O=C(C1CCC(CNS(=O)(=O)c2cccs2)CC1)N1CCN(c2ccc(F)cc2)CC1` (stereo not given) here?
A: The activity change was inconclusive: -38.9%.

Q: Which activity change does the source give for `COCCCn1c(C(=O)NCCC2=CCCCC2)cc2c(=O)n3ccccc3nc21` here?
A: The activity change was inactive: 27.8%.

Q: Which activity change does the source give for `O=C(CSc1nnc(Nc2ccccc2F)s1)Nc1cccc(S(=O)(=O)N2CCCCC2)c1` here?
A: Its activity change is inconclusive: -44.2%.

Q: With `S=C1NC(c2cccs2)=CC(c2ccc(Br)cc2)N1` (stereo not given) as the molecule, how does the activity change read?
A: The activity change was inconclusive: -32.7%.

Q: Which activity change does the source give for `CC1C(=O)C(C)C(c2cc(Br)ccc2O)NC1c1cc(Br)ccc1O` (stereo not given) here?
A: The activity change was active: -96.9%.

Q: Which activity change does the source give for `COc1ccc(/C=C/C(=O)Nc2ccc3c(c2)OCCO3)cc1OC` here?
A: Its activity change is inconclusive: -30.2%.

Q: Which activity change does the source give for `CCCC(=O)N1CCN(c2ccc(NC(=S)NC(=O)c3cccc(C)c3)cc2)CC1` here?
A: The activity change was active: -64.8%.

Q: With `Cc1c(C(=O)Nc2cccc([N+](=O)[O-])c2)cnn1-c1ccccc1` as the molecule, how does the activity change read?
A: Its activity change is inconclusive: -30.9%.

Q: Which activity change does the source give for `COc1ccc(OCC(=O)NC2CCCN(Cc3ccc(Cl)cc3)C2)cc1` (stereo not given) here?
A: The activity change was inconclusive: -36.6%.

Q: With `Cc1ccc(N=N/C(=C\O)C(=O)c2ccc(Cl)cc2)cc1` as the molecule, how does the activity change read?
A: Its activity change is active: -85.7%.

Q: Which activity change does the source give for `CON(C)C(=O)C[C@@H]1C[C@H](OC(=O)c2ccc([N+](=O)[O-])cc2)CN1C(=O)OC(C)(C)C` here?
A: The activity change was inactive: -1.03%.

Q: For `COc1cc(OC)c(CN2CCC(CO)(CCOc3ccccc3)CC2)c(OC)c1`, which activity change is on record?
A: The activity change was active: -70.3%.

Q: For `CCc1nc(N2CCC3(CC2)OCCO3)c2nnn(Cc3ccccc3)c2n1`, which activity change is on record?
A: Its activity change is inconclusive: -37.6%.

Q: Which activity change does the source give for `CC(C)C(NC(=O)Cc1ccccc1[N+](=O)[O-])C(C)C` here?
A: Its activity change is inactive: 26.7%.

Q: For `C[C@@H](c1ccccc1)N1C[C@H](COCc2ccccc2)Oc2cc(N3CC[C@@H](N(C)C)C3)ccc2S1(=O)=O`, which activity change is on record?
A: Its activity change is inactive: 69.4%.

Q: With `CC1CCC(C(C)C)C(OC(=O)Cn2c(-c3ccc(F)cc3)[n+](C)c3ccccc32)C1` (stereo not given) as the molecule, how does the activity change read?
A: Its activity change is active: -101%.

Q: With `CC(C)c1nc(SCC(=O)NC2CCCC2)c2ccccc2n1` as the molecule, how does the activity change read?
A: The activity change was inconclusive: -45.2%.

Q: Which activity change does the source give for `NC(N)=Nc1ccc(C=C2C=Cc3ccccc32)cc1` here?
A: The activity change was active: -68.3%.

Q: For `CN(Cc1ccccc1)C(=O)c1ccc2nc([C@@H]3O[C@H](CO)[C@H](O)[C@H](O)[C@H]3O)[nH]c2c1`, which activity change is on record?
A: Its activity change is inactive: 28.2%.

Q: With `O=C1N(Cc2cccnc2)C[C@@H]2C[C@@H](c3ccccc3C(F)(F)F)N3CCC[C@@]123` as the molecule, how does the activity change read?
A: Its activity change is inconclusive: -35.1%.

Q: For `CN(C)c1ccc([C@@H]2[C@@H]([N+](=O)[O-])[C@H]3C=Cc4ccccc4N3[C@H]2C(=O)c2ccc(Cl)cc2)cc1`, which activity change is on record?
A: Its activity change is inconclusive: -32.9%.

Q: Which activity change does the source give for `CC(C)=CCN1CCN(CCC2=C(C)CCCC2(C)C)CC1CCO` (stereo not given) here?
A: The activity change was inconclusive: -42.4%.

Q: With `c1ccc(Cn2ccnc2C2OCCO2)cc1` as the molecule, how does the activity change read?
A: Its activity change is inactive: 22.9%.

Q: Which activity change does the source give for `COc1ccccc1N(C(=O)c1csnn1)C(C(=O)NC1CCCC1)c1ccccc1` (stereo not given) here?
A: The activity change was inactive: 0.768%.

Q: Which activity change does the source give for `C[C@@H]1NC(=O)c2cc([N+](=O)[O-])cc(I)c2OCC[C@@H](C(=O)NC(CC(=O)O)C(N)=O)NC(=O)[C@H](CC(N)=O)NC1=O` (stereo not given in full) here?
A: The activity change was inactive: -3.27%.

Q: Which activity change does the source give for `CNC(=O)Nc1cccc(-c2cc(-c3c(Cl)cccc3Cl)no2)c1` here?
A: The activity change was active: -79.1%.
